# The supplement of paper PMC10037445
# The full ranking holds about 2,900 compounds; the median of “NF-kB SEAP reporter activity, fold change vs agonist alone” is about 0.99, and the highest 2% start at about 2.6. The list shows a part of the results.
# Legend:
# RAW-Dual [1] = assay: NF-kB SEAP reporter activity, fold change vs agonist alone; higher = enhanced NF-kB activity
# Outline: (§1)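 RAW-Dual macrophages were seeded in DMEM at 50,000 cells/well in 384-well plates, given 50 nL of library stock by pin tool, and given a PRR agonist 1 h later. Plates were held at 37 °C, 5% CO2 for 20 hours, after which supernatant was read for IRF by QuantiLuc luminescence and for NF-κB by QuantiBlue absorbance at 620 nm. Reporter activity is expressed as fold change over wells that received agonist alone. A well was called cytotoxic when IncuCyte confluency fell below 70% of agonist controls in both mask sets.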
# RAW-Dual [2] = assay: NF-kB SEAP reporter activity, fold change vs agonist alone; cytotoxicity flag (confluency mask): not cytotoxic; higher = enhanced NF-kB activity
# Outline: as §1
# RAW-Dual [3] = assay: NF-kB SEAP reporter activity, fold change vs agonist alone; cytotoxicity flag (confluency mask): cytotoxic (confluency <70% of control); higher = enhanced NF-kB activity
# Outline: as §1
# [4] = library stock concentration (final ~1000-fold dilution): 10 mM, cytotoxicity flag (confluency mask): not cytotoxic, agonist: Imiquimod (TLR7) […]
# [5] = library stock concentration (final ~1000-fold dilution): 10 mM, cytotoxicity flag (confluency mask): not cytotoxic, agonist: MPLA (TLR4) […]
# [6] = agonist: ODN 1826 (TLR9) 0.5 ug/mL
# [7] = agonist: Pam2CSK4 (TLR2/6) 0.1 ug/mL
# [8] = agonist: Pam3CSK4 (TLR2/1) 0.1 ug/mL
# [9] = library stock concentration (final ~1000-fold dilution): 10 mM, cytotoxicity flag (confluency mask): cytotoxic (confluency <70% of control), agonist: Imiquimod (TLR7) […]
# [10] = library stock concentration (final ~1000-fold dilution): 10 mM, cytotoxicity flag (confluency mask): cytotoxic (confluency <70% of control), agonist: MPLA (TLR4) […]
compound,measurement,setting,value
COc1ccc(C2CC(c3ccccc3)=NN2c2ccc(S(N)(=O)=O)cc2)cc1 (centres undefined),NF-kB SEAP reporter activity,RAW-Dual [1]; [4],0.545
same,NF-kB SEAP reporter activity,RAW-Dual [1]; [5],0.604
COc1ccc(C2CC(c3ccccc3)=NN2c2ccc(S(N)(=O)=O)cc2)cc1 (centres undefined) (library stock concentration (final ~1000-fold dilution): 10 mM),NF-kB SEAP reporter activity,RAW-Dual [2]; agonist: LPS (TLR4) 0.1 ug/mL,0.546
same,NF-kB SEAP reporter activity,RAW-Dual [2]; [6],0.328
same,NF-kB SEAP reporter activity,RAW-Dual [2]; [7],0.3
same,NF-kB SEAP reporter activity,RAW-Dual [2]; [8],0.219
CCCC(=O)[O-].[Na+],NF-kB SEAP reporter activity,"RAW-Dual [1]; library stock concentration (final ~1000-fold dilution): 10 mM water, cytotoxicity flag (confluency mask): not cytotoxic, agonist: Imiquimod (TLR7) […]",0.965
same,NF-kB SEAP reporter activity,"RAW-Dual [1]; library stock concentration (final ~1000-fold dilution): 10 mM water, cytotoxicity flag (confluency mask): not cytotoxic, agonist: MPLA (TLR4) […]",1.02
CCCC(=O)[O-].[Na+] (library stock concentration (final ~1000-fold dilution): 10 mM water),NF-kB SEAP reporter activity,RAW-Dual [2]; agonist: LPS (TLR4) 0.1 ug/mL,1.21
same,NF-kB SEAP reporter activity,RAW-Dual [2]; [6],1.1
same,NF-kB SEAP reporter activity,RAW-Dual [2]; [7],1.08
same,NF-kB SEAP reporter activity,RAW-Dual [2]; [8],1.21
Cc1cc(Nc2cc(N3CCN(C)CC3)nc(/C=C/c3ccccc3)n2)n[nH]1 (library stock concentration (final ~1000-fold dilution): 10 mM),NF-kB SEAP reporter activity,RAW-Dual [3]; agonist: LPS (TLR4) 0.1 ug/mL,0.459
same,NF-kB SEAP reporter activity,RAW-Dual [3]; [6],0.191
same,NF-kB SEAP reporter activity,RAW-Dual [3]; [7],0.127
same,NF-kB SEAP reporter activity,RAW-Dual [3]; [8],0.201
Cc1cc(Nc2cc(N3CCN(C)CC3)nc(/C=C/c3ccccc3)n2)n[nH]1,NF-kB SEAP reporter activity,RAW-Dual [1]; [9],1.08
same,NF-kB SEAP reporter activity,RAW-Dual [1]; [10],0.8
COCCOc1ccc2c(c1)ncn2-c1ccc2cccc(N3CCC(N)CC3)c2n1 (library stock concentration (final ~1000-fold dilution): 10 mM),NF-kB SEAP reporter activity,RAW-Dual [3]; agonist: LPS (TLR4) 0.1 ug/mL,0.593
same,NF-kB SEAP reporter activity,RAW-Dual [3]; [6],0.758
same,NF-kB SEAP reporter activity,RAW-Dual [3]; [7],0.862
same,NF-kB SEAP reporter activity,RAW-Dual [3]; [8],1.32
COCCOc1ccc2c(c1)ncn2-c1ccc2cccc(N3CCC(N)CC3)c2n1,NF-kB SEAP reporter activity,RAW-Dual [1]; [9],2.77
same,NF-kB SEAP reporter activity,RAW-Dual [1]; [10],0.871
Cc1nc(C#Cc2ccnc(Cl)c2)c(C)n1-c1ccc(OC(F)(F)F)cc1,NF-kB SEAP reporter activity,RAW-Dual [1]; [9],0.385
same,NF-kB SEAP reporter activity,RAW-Dual [1]; [10],0.305
Cc1nc(C#Cc2ccnc(Cl)c2)c(C)n1-c1ccc(OC(F)(F)F)cc1 (library stock concentration (final ~1000-fold dilution): 10 mM),NF-kB SEAP reporter activity,RAW-Dual [3]; agonist: LPS (TLR4) 0.1 ug/mL,0.243
same,NF-kB SEAP reporter activity,RAW-Dual [3]; [6],0.203
same,NF-kB SEAP reporter activity,RAW-Dual [3]; [7],0.111
same,NF-kB SEAP reporter activity,RAW-Dual [3]; [8],0.149
COC(=O)C1=C(C)NC(C)=C(C(=O)OCCN(C)Cc2ccccc2)C1c1cccc([N+](=O)[O-])c1 (centres undefined) (library stock concentration (final ~1000-fold dilution): 10 mM),NF-kB SEAP reporter activity,RAW-Dual [2]; agonist: LPS (TLR4) 0.1 ug/mL,0.852
same,NF-kB SEAP reporter activity,RAW-Dual [2]; [6],0.441
same,NF-kB SEAP reporter activity,RAW-Dual [2]; [7],0.602
same,NF-kB SEAP reporter activity,RAW-Dual [2]; [8],0.474
COC(=O)C1=C(C)NC(C)=C(C(=O)OCCN(C)Cc2ccccc2)C1c1cccc([N+](=O)[O-])c1 (centres undefined),NF-kB SEAP reporter activity,RAW-Dual [1]; [5],0.849
CN(C)c1cccc(-c2c3c(=O)n(-c4ccccc4Cl)[nH]c3cc(=O)n2C)c1,NF-kB SEAP reporter activity,RAW-Dual [1]; [4],1.01
same,NF-kB SEAP reporter activity,RAW-Dual [1]; [5],1.07
CN(C)c1cccc(-c2c3c(=O)n(-c4ccccc4Cl)[nH]c3cc(=O)n2C)c1 (library stock concentration (final ~1000-fold dilution): 10 mM),NF-kB SEAP reporter activity,RAW-Dual [2]; agonist: LPS (TLR4) 0.1 ug/mL,2.01
same,NF-kB SEAP reporter activity,RAW-Dual [2]; [6],0.99
same,NF-kB SEAP reporter activity,RAW-Dual [2]; [7],0.938
same,NF-kB SEAP reporter activity,RAW-Dual [2]; [8],0.886
CC(=O)SC1CC2=CC(=O)CCC2(C)C2CCC3(C)C(CCC34CCC(=O)O4)C12 (centres undefined),NF-kB SEAP reporter activity,RAW-Dual [1]; [4],1.02
same,NF-kB SEAP reporter activity,RAW-Dual [1]; [5],1.06
CC(=O)SC1CC2=CC(=O)CCC2(C)C2CCC3(C)C(CCC34CCC(=O)O4)C12 (centres undefined) (library stock concentration (final ~1000-fold dilution): 10 mM),NF-kB SEAP reporter activity,RAW-Dual [2]; agonist: LPS (TLR4) 0.1 ug/mL,0.933
same,NF-kB SEAP reporter activity,RAW-Dual [2]; [6],1.16
same,NF-kB SEAP reporter activity,RAW-Dual [2]; [7],1.11
same,NF-kB SEAP reporter activity,RAW-Dual [2]; [8],1.07
CN(C)C(=O)COC(=O)Cc1ccc(OC(=O)c2ccc(NC(=N)N)cc2)cc1.CS(=O)(=O)O,NF-kB SEAP reporter activity,RAW-Dual [1]; [4],1.17
same,NF-kB SEAP reporter activity,RAW-Dual [1]; [5],1.01
